{"source": "the supplement of paper PMC2702839", "note": "Counter-ions that a name gives are not always drawn. The list shows a part of the results.", "data": [{"test_system": "Schistosoma mansoni schistosomula", "test": "phenotypic hit in primary schistosomula screen (any phenotype vs DMSO control) (binary (1 = hit, 0 = no phenotype)); higher = active (phenotype induced)", "conditions": "1 µM; time (d): 7", "values": [{"smiles": "O=C(O)c1cc(O)ccc1O", "note": "[gentisic acid]", "phenotypic hit": "inactive: 0"}, {"smiles": "O=C(O[C@@H]1Cc2c(O)cc(O)cc2O[C@@H]1c1cc(O)c(O)c(O)c1-c1c([C@H]2Oc3cc(O)cc(O)c3C[C@H]2OC(=O)c2cc(O)c(O)c(O)c2)cc(O)c(O)c1O)c1cc(O)c(O)c(O)c1", "note": "[2',2'-bisepigallocatechin digallate]", "phenotypic hit": "inactive: 0"}, {"smiles": "CC(C)=CCc1c(O)cc2oc(C)cc(=O)c2c1O", "note": "[peucenin]", "phenotypic hit": "inactive: 0"}, {"smiles": "CC12CC3CC(C)(C1)CC(N)(C3)C2", "note": "[Memantine hydrochloride]", "phenotypic hit": "inactive: 0"}, {"smiles": "C#C[C@]1(O)CC[C@H]2[C@@H]3CCC4=Cc5oncc5C[C@]4(C)[C@H]3CC[C@@]21C", "note": "[danazol]", "phenotypic hit": "inactive: 0"}, {"smiles": "CCOc1ccc(Cc2nccc3cc(OCC)c(OCC)cc23)cc1OCC", "note": "[ethaverine hydrochloride]", "phenotypic hit": "inactive: 0"}, {"smiles": "O=C(Nc1ccc([N+](=O)[O-])cc1Cl)c1cc(Cl)ccc1O", "note": "[niclosamide]", "phenotypic hit": "active: 1"}, {"smiles": "CSCCC(N)C(=O)NC(CC(C)C)C(=O)NC(Cc1ccccc1)C(=O)O", "note": "(stereo not drawn) [methionyl-leucylphenylalanine acetate]", "phenotypic hit": "inactive: 0"}, {"smiles": "CN1CCCN=C1/C=C/c1cccs1", "note": "[pyrantel pamoate]", "phenotypic hit": "inactive: 0"}, {"smiles": "C=C1C(N)CC2CC1C2(C)C", "note": "(stereo not drawn) [3-amino-beta-pinene]", "phenotypic hit": "inactive: 0"}, {"smiles": "CCC[C@@H]1C[C@@H](C(=O)N[C@@H]([C@H]2O[C@H](SC)[C@H](O)[C@@H](O)[C@H]2O)[C@@H](C)O)N(C)C1", "note": "[lincomycin hydrochloride]", "phenotypic hit": "inactive: 0"}, {"smiles": "NNC(=O)c1ccncc1", "note": "[isoniazid]", "phenotypic hit": "inactive: 0"}, {"smiles": "COc1ccc(/C=C/c2cc(O)cc(O[C@@H]3O[C@H](CO)[C@@H](O)[C@H](O)[C@H]3O)c2)cc1O", "note": "[rhapontin]", "phenotypic hit": "inactive: 0"}, {"smiles": "CC1(C)CC2C1CCC1(C)OC1CCC2(C)O", "note": "(stereo not drawn) [2-hydroxy-5 (6)epoxy-tetrahydrocaryophyllene]", "phenotypic hit": "inactive: 0"}, {"smiles": "CC1=CCc2c(cc3oc(C)cc(=O)c3c2O)OC1", "note": "[ptaeroxylin]", "phenotypic hit": "inactive: 0"}, {"smiles": "CC1(C)O[C@@H]2C[C@H]3[C@@H]4C[C@H](F)C5=CC(=O)CC[C@]5(C)[C@H]4[C@@H](O)C[C@]3(C)[C@]2(C(=O)CO)O1", "note": "[flurandrenolide]", "phenotypic hit": "inactive: 0"}, {"smiles": "CCC(=O)OCC(=O)[C@@]1(OC(=O)CC)[C@@H](C)C[C@H]2[C@@H]3CCC4=CC(=O)C=C[C@]4(C)[C@@]3(F)[C@@H](O)C[C@@]21C", "note": "[betamethasone 17,21-dipropionate]", "phenotypic hit": "inactive: 0"}, {"smiles": "CCCCc1oc2ccccc2c1C(=O)c1cc(I)c(OCCN(CC)CC)c(I)c1", "note": "[Amiodarone hydrochloride]", "phenotypic hit": "inactive: 0"}]}]}
